The other results are listed elsewhere or left out. Sequences were assembled here from the parent chain. Inactive controls read about 0.05.
B1: TEV protease; numbered along this chain (parent)
chain: MGESLFKGPRDYNPISSSICHLTNESDGHTTSLYGIGFGPFIITNKHLFRRNNGTLVVQSLHGVFKVKDTTTLQQHLVDGRDMIIIRMPKDFPPFPQKLKFREPQREERICLVTTNFQTKSMSSMVSDTSCTFPSGDGIFWKHWIQTKDGQCGSPLVSTRDGFIVGIHSASNFTNTNNYFTSVPKNFMELLTNQEAQQWVSGWRLNADSVLWGGHKVFMVKPEEPFQPVKEATQL

Variants of: B1
Assay: raw area under fraction-flipped curve 0-4 h after induction (AUC4h, not background-subtracted), DNA-recorder readout of cleavage of the substrate (dimensionless); higher = more cleavage of the substrate by the protease variant
Conditions: temperature: 34 °C; time window: 0-4 h after rhamnose induction
Description: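 In vivo DNA recorder in E. coli TOP10(DE3) ΔrhaA at 34 °C. Each TEVp single-site mutant (parent TEVp 0) is paired with a single-site variant of the 7-mer TEVs (canonical ENLYFQ|S). The substrate sits between flexible linkers in a Bxb1-sfGFP-TEVs-SsrA fusion, so cleavage stabilises Bxb1 and speeds flipping of a recombination array, read by NGS. The value is the raw area under the fraction-flipped curve over 0-4 h after rhamnose induction (AUC4h), with ≥20 reads per time point. It is not background-subtracted; inactive controls average about 0.047.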
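Note: Bxb1 expression induced with 0.2% (w/v) L-rhamnose at OD600 near 0.5, cultures sampled hourly, flipped fraction per protease–substrate barcode pair counted by paired-end Illumina sequencing.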

Variant | area with substrate ENLYDQS | area with substrate ENLYEQS | area with substrate ENLYGQS | area with substrate ENLYHQS | area with substrate ENLYKQS | area with substrate ENLYMQS | area with substrate ENLYNQS | area with substrate ENLYSQS | area with substrate ENLYTQS | area with substrate ENLYVQS | area with substrate ENLYWQS | area with substrate ENLYYQS | area with substrate ENLYCQS | area with substrate ENLYIQS | area with substrate ENLYRQS | area with substrate ENLYLQS | area with substrate ENLYPQS | area with substrate ENLYQQS
F65W | 0.0614 | 0.0721 | 0.0709 | 0.0628 | 0.0622 | 0.0789 | 0.0665 | 0.0659 | 0.0788 | 0.0929 | 0.128 | 0.0622 | – | – | – | – | – | –
I139A | 0.0516 | 0.063 | – | 0.039 | 0.0546 | – | 0.0657 | 0.0668 | 0.0725 | 0.11 | 0.0911 | – | 0.0848 | 0.086 | 0.0527 | – | – | –
T129Q | – | – | 0.057 | 0.0658 | 0.0569 | – | 0.0445 | – | – | – | 0.0732 | 0.076 | 0.0902 | 0.128 | 0.0773 | 0.0851 | 0.0678 | 0.0638
T129I | 0.0658 | 0.0694 | 0.0675 | 0.0503 | 0.0732 | – | – | – | 0.0724 | 0.0771 | 0.068 | 0.0617 | 0.071 | 0.117 | – | – | 0.0624 | –
F180L | – | 0.0654 | – | – | 0.0866 | 0.0534 | – | – | – | 0.131 | 0.061 | – | 0.0835 | – | – | 0.0578 | – | 0.0498
P155L | 0.0539 | 0.0428 | 0.0468 | 0.0562 | 0.0494 | – | 0.056 | 0.0583 | – | – | 0.0302 | 0.0428 | 0.0316 | 0.0941 | 0.0561 | – | 0.0268 | 0.0758
V126M | 0.0582 | 0.0713 | 0.065 | 0.0654 | 0.0626 | – | 0.0625 | 0.0718 | – | 0.0964 | 0.0828 | 0.0475 | 0.117 | 0.141 | 0.0392 | 0.0823 | – | –
V126W | 0.0954 | 0.0622 | 0.0704 | 0.0655 | 0.0857 | 0.107 | 0.0631 | 0.0821 | 0.0874 | 0.127 | 0.0797 | – | 0.075 | 0.111 | 0.0702 | 0.0762 | 0.076 | 0.0654
D11A | 0.058 | 0.0668 | 0.0609 | 0.0665 | 0.052 | 0.0809 | 0.056 | – | 0.0751 | 0.1 | 0.0822 | 0.0616 | – | – | 0.0739 | – | 0.0693 | 0.0564
D11Q | 0.0587 | 0.0761 | 0.0599 | 0.064 | 0.0618 | 0.0721 | 0.0745 | 0.0695 | – | 0.0944 | 0.0679 | 0.059 | – | 0.1 | 0.0666 | 0.071 | 0.0746 | 0.0631
T44K | 0.0403 | 0.0431 | 0.0372 | 0.0304 | 0.0247 | 0.0379 | 0.0565 | – | – | 0.057 | 0.0401 | 0.0483 | – | 0.0475 | 0.0595 | 0.0471 | 0.0549 | 0.0287
T147E | 0.0513 | 0.0602 | 0.0502 | 0.0634 | 0.0598 | 0.0658 | 0.0647 | 0.0596 | 0.0586 | 0.0561 | 0.0525 | – | 0.0597 | 0.0544 | 0.0534 | 0.0643 | 0.0755 | 0.0659
T31P | 0.0598 | 0.0586 | 0.0591 | 0.0582 | – | 0.0556 | 0.0506 | 0.0333 | – | – | 0.0632 | – | – | 0.0618 | 0.0551 | 0.0425 | 0.0531 | 0.0549
D137L | 0.061 | – | 0.0357 | 0.0683 | 0.0461 | 0.0725 | – | – | – | 0.101 | – | – | 0.104 | 0.14 | 0.0635 | 0.0863 | – | 0.068
H143A | 0.0594 | 0.0669 | – | 0.0603 | 0.0625 | 0.0701 | 0.0647 | 0.0688 | – | 0.0931 | 0.0718 | 0.0548 | 0.0809 | 0.0978 | – | – | 0.061 | 0.0623
Q234I | – | 0.0647 | 0.0596 | 0.0664 | 0.0812 | 0.0947 | 0.0691 | – | 0.0793 | 0.0893 | 0.082 | – | 0.091 | 0.136 | 0.0626 | – | – | 0.0577
D27K | 0.0723 | 0.0622 | 0.0603 | 0.0322 | 0.0664 | 0.0574 | 0.0521 | 0.0548 | – | 0.0991 | 0.07 | – | – | 0.108 | – | 0.0753 | – | –
H47K | 0.07 | 0.0592 | 0.0716 | 0.0588 | 0.0874 | 0.0655 | 0.0572 | 0.0593 | – | 0.0546 | 0.056 | 0.0669 | – | 0.061 | 0.0343 | – | 0.0709 | 0.0534
H47D | 0.0556 | 0.0704 | 0.0623 | 0.0602 | 0.0589 | 0.0473 | 0.0625 | 0.0381 | 0.054 | 0.0123 | – | – | – | 0.0426 | 0.0366 | – | 0.0572 | 0.0529
F49V | 0.0746 | 0.0652 | 0.0597 | 0.0597 | 0.0593 | – | 0.0724 | 0.0631 | 0.0672 | – | 0.0567 | 0.069 | – | 0.0631 | 0.0578 | 0.0534 | 0.0592 | –
F49K | 0.0591 | 0.0543 | – | 0.0559 | 0.0183 | 0.0543 | 0.0519 | 0.0488 | 0.0498 | – | 0.0571 | 0.0733 | – | 0.0561 | – | 0.0677 | 0.0576 | 0.0592
F187I | – | 0.0609 | 0.0705 | 0.0676 | 0.141 | – | 0.0534 | – | 0.0822 | 0.108 | 0.107 | 0.0535 | 0.0919 | 0.108 | 0.0644 | – | 0.0673 | 0.0608
L22V | 0.0442 | 0.0527 | 0.0587 | 0.0732 | 0.0462 | 0.0823 | 0.0674 | 0.0824 | 0.0638 | 0.0984 | 0.0722 | 0.0725 | – | 0.127 | 0.0729 | 0.0283 | 0.0681 | 0.0728
L22K | 0.0478 | 0.0464 | – | 0.0344 | 0.052 | 0.0312 | 0.0324 | – | – | 0.0418 | 0.0458 | 0.0507 | – | 0.0478 | – | 0.0521 | 0.052 | 0.0601
N206G | 0.0622 | 0.0675 | 0.0734 | 0.0653 | 0.0937 | 0.0751 | 0.0719 | – | – | 0.121 | 0.0629 | 0.0633 | 0.0567 | 0.102 | – | 0.0965 | 0.0688 | 0.0792
H29R | 0.0562 | 0.0758 | – | – | 0.0777 | 0.0843 | 0.0664 | – | 0.0831 | – | – | 0.051 | – | 0.107 | 0.0607 | – | 0.0746 | –
